From PMC4336329 (PLoS ONE, 2015)
The whole screen tested about 310,000 compounds, of which about 2,200 (0.71%) showed an effect of 50% or more. Effects have a minus sign here. This is one part of the list.

biological target: human ether-à-go-go-related gene (hERG) potassium channel (human, UniProt Q12809); assay: primary screen, population patch clamp on CHO cells stably expressing hERG
Sequence (Q12809 whole entry, looked up): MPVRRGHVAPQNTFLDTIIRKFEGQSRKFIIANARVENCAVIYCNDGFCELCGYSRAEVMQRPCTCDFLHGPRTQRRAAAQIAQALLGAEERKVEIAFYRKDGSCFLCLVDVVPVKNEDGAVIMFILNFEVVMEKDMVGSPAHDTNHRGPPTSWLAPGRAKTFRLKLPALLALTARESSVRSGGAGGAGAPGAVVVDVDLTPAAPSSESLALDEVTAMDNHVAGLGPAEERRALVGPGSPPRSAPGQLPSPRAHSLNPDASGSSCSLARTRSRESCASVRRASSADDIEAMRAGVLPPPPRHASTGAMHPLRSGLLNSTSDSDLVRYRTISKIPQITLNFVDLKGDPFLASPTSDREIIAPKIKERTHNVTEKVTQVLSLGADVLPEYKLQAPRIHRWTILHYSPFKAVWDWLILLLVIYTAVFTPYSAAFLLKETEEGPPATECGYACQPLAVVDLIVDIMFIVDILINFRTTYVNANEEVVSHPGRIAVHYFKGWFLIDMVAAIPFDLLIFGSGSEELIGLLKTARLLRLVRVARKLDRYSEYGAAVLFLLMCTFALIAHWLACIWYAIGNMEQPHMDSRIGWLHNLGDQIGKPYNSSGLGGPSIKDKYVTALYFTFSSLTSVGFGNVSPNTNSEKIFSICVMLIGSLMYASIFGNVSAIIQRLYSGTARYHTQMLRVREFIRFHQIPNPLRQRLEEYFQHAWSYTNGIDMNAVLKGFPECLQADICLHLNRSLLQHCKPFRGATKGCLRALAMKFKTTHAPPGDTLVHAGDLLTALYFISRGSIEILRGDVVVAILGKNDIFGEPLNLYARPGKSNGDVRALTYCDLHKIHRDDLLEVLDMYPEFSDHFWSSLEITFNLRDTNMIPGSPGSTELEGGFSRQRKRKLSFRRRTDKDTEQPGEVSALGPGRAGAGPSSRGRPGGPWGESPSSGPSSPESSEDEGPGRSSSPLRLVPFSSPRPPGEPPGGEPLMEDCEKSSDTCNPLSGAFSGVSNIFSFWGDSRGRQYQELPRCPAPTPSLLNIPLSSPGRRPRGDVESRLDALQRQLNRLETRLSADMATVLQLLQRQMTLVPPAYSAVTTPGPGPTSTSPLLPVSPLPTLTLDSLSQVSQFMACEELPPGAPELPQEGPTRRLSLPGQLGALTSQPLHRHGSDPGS

Row | SMILES | hERG current change (%, negative = inhibition) at 1uM
1 | O=C(NC1(N2CCOCC2)CC1)c1ccc(Cl)cc1 | 9.48%
2 | CC(C)NC(=O)CCc1nnc(Cc2cccc(C(F)(F)F)c2)o1 | -1.28%
3 | CC(C)(C)c1ccc(CS(=O)CC(O)CO)cc1 (stereo not drawn) | 14.2%
4 | CS(=O)(=O)N(CC(=O)Nc1cc(Cl)ccc1Cl)c1ccccc1 | -5.45%
5 | CCOC(=O)c1ccc(NC(=O)C2(c3ccccc3)CCCC2)cc1 | -20.6%
6 | CCOCCCNC(=O)c1ccc(CS(=O)(=O)Cc2ccc(C)cc2)o1 | 5.38%
7 | C/C(=N\NC(=O)COc1ccc(C(C)(C)C)cc1)c1cc2ccccc2o1 | 0.79%
8 | CCn1c(NC(=O)c2ccccc2F)c(-c2cccs2)c(=O)c2ccccc21 | 4.56%
9 | CCOC(=O)C1=C(N)OC2=C(C(=O)CC(C)C2)C1c1cccnc1 (stereo not drawn) | 16.2%
10 | Cc1ccccc1NC(=O)Cn1cnc2c1c(=O)n(C)c(=O)n2C | 9.32%
11 | COCCN(C(=O)CSc1nnc(C)n1-c1ccc(C)cc1)c1c(N)n(Cc2ccccc2)c(=O)[nH]c1=O | 9.76%
12 | COc1cccc(-n2c(O)c(C=NCCN3CCNCC3)c(=O)[nH]c2=S)c1 | 7.28%
13 | Cc1nc2c(C)cccn2c(=O)c1NC(=O)c1cccc2ccccc12 | 12.1%
14 | O=C(NCc1ccco1)C(c1ccccc1)N(C(=O)Cc1cccs1)c1ccccc1 (stereo not drawn) | 16.4%
15 | O=P(O)(CCc1ccncc1)CN1CCCCC1 | 21.2%
16 | Cc1oc2c(C)c3oc(=O)c(CCC(=O)O)c(C)c3cc2c1-c1ccccc1 | 14.2%
17 | CN1C(=O)N(c2nnc(C(C)(C)C)s2)C(=O)C1c1ccccc1 (stereo not drawn) | 14.2%
18 | Cc1nc(CN2CCCCC2)cc(=O)[nH]1 | 13.7%
19 | C/C(=C\c1ccccc1)C(=O)NC1CCSC1=O (stereo not drawn) | -4.25%
20 | CCO[C@@H]1OC(C(N)=O)=C[C@H](c2coc3ccccc3c2=O)[C@H]1CCCO | 7.09%
21 | Cc1occc1C(=O)NNC(=S)Nc1cccc([N+](=O)[O-])c1 | 4.55%
22 | Cc1ccc(C(=O)N2CCN(c3ccccc3)CC2)cc1NC(=O)c1ccco1 | 1.43%
23 | C=CCC1C(=O)NC(=S)NC1=O | 10.8%

Row | SMILES | hERG current change (%, negative = inhibition) at 1uM
24 | O=S(=O)(Cc1ccccc1)N1CCn2c(nc3ccccc32)C1 | 11.2%
25 | CC(C)(C)c1ccc(C(=O)NCC(=O)NNC(=O)c2ccccc2O)cc1 | 16.7%
26 | CCOC(=O)CC1COCCN1C(=O)c1cc(COc2ccc(F)c(F)c2)on1 (stereo not drawn) | -9.67%
27 | N=C1/C(=C\c2ccc(SCc3ccco3)o2)C(=O)N=C2SC=NN12 | 17.3%
28 | Cc1cc(OCC(=O)N2CCCN(C)CC2)ccc1Cl | 13.6%
29 | Nc1nc(-c2ccccn2)nc(N)c1Cc1c(F)cccc1Cl | 4.23%
30 | CCC(Sc1ncccc1C(=O)OC(C)C)C(=O)N1CCOCC1 (stereo not drawn) | 11.5%
31 | Cc1ccc(C(=O)Nc2nc3n(n2)C(c2ccccc2)CC(=O)N3)cc1 (stereo not drawn) | 10.2%
32 | COc1ccc(Cl)cc1NC(=O)CCN1C(=O)C2CC=CCC2C1=O (stereo not drawn) | 10.9%
33 | CCO[C@H]1OC(C(=O)N2CCN(C)CC2)=C[C@@H](C(C)(C)C)[C@@H]1CCCO | 3.29%
34 | CCCn1nnnc1NCc1ccccc1F | 11.7%
35 | CCCNc1c(N)c(=O)c1=O | 8.98%
36 | COc1cc(NC(=O)c2cccnc2Sc2ccc(C)c(C)c2)cc(OC)c1OC | 15.2%
37 | Cc1coc2cc3oc(=O)c(CC(=O)N(C)CC(=O)O)c(C)c3cc12 | 19%
38 | CSc1ccc(C2CC(=O)Nc3nc(SC)[nH]c(=O)c32)cc1 (stereo not drawn) | 17%
39 | CC(C)(C)NC(=O)C1CC2CCCCC2CN1 (stereo not drawn) | 10.3%
40 | Cn1c2c(c(=O)n(C)c1=O)C(c1ccc(Br)cc1)C(C#N)=C(N)N2 (stereo not drawn) | 11.4%
41 | CCOc1ccccc1NC(=O)C1CCCN(S(C)(=O)=O)C1 (stereo not drawn) | 11%
42 | Cc1ccc(Cn2c(=O)cc(C(=O)O)c3ccccc32)cc1 | -1.26%
43 | COc1cc(S(=O)(=O)NCc2ccc(F)cc2)ccc1-n1cnnn1 | -7.05%
44 | COc1ccc(OC)c(NC(=O)C2=C(C)Nc3ncnn3C2c2cccs2)c1 (stereo not drawn) | -5.59%
45 | Cc1cccc(Nc2nnc(SCc3cc(=O)n4cc(C)ccc4n3)s2)c1 | 14.3%
46 | Cc1ccn2c(=O)c(C(=O)NC3CCCCC3C)c(O)nc2c1 (stereo not drawn) | 12%

Row | SMILES | hERG current change (%, negative = inhibition) at 1uM
47 | Cc1cnc(C(=O)OCC(=O)NC(=O)c2ccccc2)cn1 | 19.7%
48 | Cc1cccc(NC(=O)CCNS(=O)(=O)c2cccc3nonc23)c1C | 2.23%
49 | CC(=O)CC(=O)Nc1ccc(C(N)=O)cc1 | 7.41%
50 | COc1c2c(nc3occc13)C(CC=C(C)C)(OC)C(=O)C=C2 (stereo not drawn) | -0.178%
51 | CCOc1ccccc1N1CCN(S(=O)(=O)c2ccc3c4c(cccc24)C(=O)N3)CC1 | 7.24%
52 | Cc1nnc(NC(=O)c2c(F)c(F)c(F)c(F)c2F)s1 | 15.5%
53 | CC(=O)Oc1ccc(N2C(=O)c3cccc4c([N+](=O)[O-])ccc(c34)C2=O)cc1 | 17.5%
54 | COC(=O)C1=CN(Cc2ccc(OC)cc2)C=C(C(=O)OC)C1c1ccsc1 | 15.1%
55 | Cc1nnc(SCC(=O)N2CCN(S(=O)(=O)c3ccccc3)CC2)s1 | 3.67%
56 | CNC(=O)CSc1nc(-c2ccccc2)c(-c2ccccc2)[nH]1 | 3.72%
57 | CCc1nnc(NC(=O)CCC(=O)N2CCN(Cc3cc(F)ccc3OC)CC2)s1 | 8.26%
58 | COc1ccccc1NCC(=O)N1CCN(S(=O)(=O)c2ccccc2)CC1 | 14%
59 | CC(=O)Nc1ccc(N(C(=O)c2ccco2)C(C(=O)NC2CCCC2)c2ccncc2)cc1 (stereo not drawn) | 13.5%
60 | O=C1CCCN1c1nccs1 | 12.5%
61 | O=C(Nc1ccc(F)cc1)C1CC(=O)n2cnnc2N1 (stereo not drawn) | 9.45%
62 | O=C(O)c1c[nH]c2ccc(S(=O)(=O)N3CCN(c4ccc(F)cc4)CC3)cc2c1=O | -5.04%
63 | COc1cc(NC(=O)Cn2nc(Cc3cccnc3)c3ccccc3c2=O)cc(OC)c1OC | 9.27%
64 | COc1ccc(N2CCN(C(=O)c3ccc4nc(N5CCCCC5)sc4c3)CC2)cc1 | 9.51%
65 | CCN(Cc1ccccc1)Cc1cccc([N+](=O)[O-])c1 | 3.32%
66 | COc1ccc(CN2CC(=O)N(c3ccccc3OC)C2=S)cc1OC | 3.69%
67 | O=C(Cn1c2ccccc2c2nc3n(c(=O)c21)CCS3)Nc1ccccc1 | 23.6%
68 | CCN(CC)C(=O)CSc1nnc(-c2ccco2)o1 | 7.92%
69 | Cc1ccc(S(=O)(=O)N(C)C)cc1NC(=O)CN1c2cccc3cccc(c23)S1(=O)=O | 2.59%

Row | SMILES | hERG current change (%, negative = inhibition) at 1uM
70 | COc1ccc(C(=O)Nc2cc(OC)nc(OC)n2)cc1 | 7.42%
71 | O=C(O)C1(c2ccccc2)CCN(S(=O)(=O)c2cccs2)CC1 | 13.1%
72 | C=CCOc1c(CNc2cccc(C(=O)O)c2)cccc1OCC | 7.85%
73 | O=C(NCC(c1ccco1)N1CCc2ccccc2C1)C(=O)Nc1ccc(F)cc1F (stereo not drawn) | 7.45%
74 | CCCN(Cc1ccccc1)C(=O)Nc1ccc2c(c1)nnn2C | 6.09%
75 | CCOc1ccc(NS(=O)(=O)c2cc(NC(=O)CCS(=O)(=O)c3ccc(C)cc3)ccc2OC)cc1 | 13.8%
76 | Cc1ccc(S(=O)(=O)Nc2ccc3c4c(cccc24)CC3)c(C)c1 | 6.81%
77 | CCN1CCN(c2c(Cl)cccc2NC(=O)c2cccs2)CC1 | -45.9%
78 | CCOC(=O)c1c(NC(=O)CCC(=O)O)sc2c1CCCCC2 | 18.6%
79 | CCOc1ccc(N=c2oc3cc(O)ccc3cc2C(=O)NCC2CCCO2)cc1 (stereo not drawn) | 11.5%
80 | Cc1ccc(NC(=S)NC(NC(=O)c2ccccc2C)C(Cl)(Cl)Cl)c(C)c1 (stereo not drawn) | 21.3%
81 | CCOC(=O)C1C(=O)N(C)C2(C)CC1c1cc(OC)ccc1O2 (stereo not drawn) | 13.8%
82 | COc1ccc(CSc2nnnn2C)cc1[N+](=O)[O-] | -2.66%
83 | C/C(=N\NC(=O)c1ccc(Cl)c(Cl)c1)c1cccc(NC(=O)C(C)C)c1 | 9.8%
84 | CCCC(c1nnnn1CC1CCCO1)N1CCN(c2ccccc2)CC1.Cl (stereo not drawn) | 14.7%
85 | Cc1ccccc1CN(CC(=O)Nc1cccc([N+](=O)[O-])c1)S(=O)(=O)c1ccc(Cl)cc1 | 8.27%
86 | CCNC(=S)NNC(=O)c1cc(CC(C)C)nc2ccccc12 | 1.63%
87 | COc1ccc(Cl)cc1NC(=S)N1CCC(c2ccc(C)cc2)C1 (stereo not drawn) | 1.58%
88 | CN(CC(=O)NCc1ccccc1Cl)S(=O)(=O)c1cccs1 | 10.1%
89 | CCOC(=O)c1cnc2nc(COc3ccccc3)[nH]n2c1=O | -1.77%
90 | CCOCCCn1c(SCC(=O)Nc2ccc(C(N)=O)cc2)nc2ccccc2c1=O | 9.22%
